# Measured values: the supplement of paper PMC3334620
# Whole data set: some 33,000 sequences, median “E-score (-0.5 to 0.5)” near -0.035, cut for the highest 2% near 0.34. The list shows a part of the results.
# Biological target: T1, Mot3 (UniProt P54785)
# T1 sequence: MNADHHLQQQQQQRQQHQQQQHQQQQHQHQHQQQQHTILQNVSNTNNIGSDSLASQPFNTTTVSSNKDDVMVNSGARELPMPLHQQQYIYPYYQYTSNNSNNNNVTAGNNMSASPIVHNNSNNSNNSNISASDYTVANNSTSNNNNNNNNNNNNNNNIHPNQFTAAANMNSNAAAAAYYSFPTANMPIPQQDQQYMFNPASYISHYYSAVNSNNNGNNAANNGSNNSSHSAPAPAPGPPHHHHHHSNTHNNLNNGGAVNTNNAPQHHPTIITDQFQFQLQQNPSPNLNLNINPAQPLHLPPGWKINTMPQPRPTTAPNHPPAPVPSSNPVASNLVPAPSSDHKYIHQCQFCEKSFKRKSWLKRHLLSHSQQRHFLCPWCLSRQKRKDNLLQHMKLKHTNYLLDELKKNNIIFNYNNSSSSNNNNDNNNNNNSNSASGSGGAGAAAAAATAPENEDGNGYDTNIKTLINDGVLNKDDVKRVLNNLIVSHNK
# Assay: PBM E-score (8-mer binding enrichment) (E-score (-0.5 to 0.5)); higher = stronger / more preferred TF binding; most listed sequences are background and not binding sites
# Conditions: protein concentration: 200 nM; construct: GST-full length
# In short: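 Detection of bound protein used fluorescent anti-GST, with scans normalised by masliner. The proteins were GST-tagged yeast transcription factors applied at about 100-200 nM to universal all-10-mer Agilent arrays made double-stranded by primer extension. Each ungapped eight-base word, pooled with its reverse complement, was scored with an E-score from the Universal PBM Analysis Suite.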
row,Sequence,PBM E-score
1,GCTTAAAC,-0.0858
2,AAACCATT,-0.169
3,GTAATGAA,0.205
4,AGGAGCAG,-0.226
5,CATTACTC,0.0851
6,ATGTGCCC,0.158
7,GAGAACGC,-0.0649
8,CCTGAGTC,-0.301
9,GACCATAA,-0.178
10,CGCGTACA,0.201
11,AGTGCGTC,-0.218
12,CGTAGACC,-0.158
13,TAAAGGAA,0.383
14,ATGCGTGA,0.0754
15,ATGCTGTC,-0.101
16,AACCAAGC,0.0446
17,CCGCCGGA,-0.275
18,GCTCACGA,-0.296
19,GATTGTCC,-0.0522
20,ACAATATC,0.0506
21,CGGTCGGA,-0.14
22,CTATGGTA,-0.182
23,ACAGTTAC,0.192
24,AACCACGC,0.0704
25,CGTAAGAA,0.0635

row,Sequence,PBM E-score
1,CTATTGAC,-0.031
2,ATGCTACA,0.036
3,AAGGTAGC,0.149
4,CCTGCACG,0.186
5,AGTATAGC,-0.00604
6,GATAATCC,-0.18
7,AGAGCTGC,-0.151
8,ATAGGGCG,-0.00539
9,AGCGTTCG,-0.173
10,ACAGGTGG,-0.21
11,CGCCCACA,-0.164
12,ATAAGCCA,0.025
13,CGTTTCGC,-0.0267
14,GCAACTAA,0.113
15,CGAACGCG,0.135
16,TCCCTCGA,-0.0649
17,GTCGTCTA,0.0515
18,CAAGAAGC,0.0859
19,AGGCCTCA,-0.247
20,AGTAAACA,0.251
21,CCTTCATA,0.209
22,GCCCCGCC,-0.163
23,CGTCGTGA,-0.157
24,ACTAACGA,0.0569
25,ACCTTTGG,-0.0679

row,Sequence,PBM E-score
1,GAGTTAGC,0.0386
2,GTGCGCAA,-0.148
3,AGGGGACT,-0.284
4,CGATAGAC,0.0473
5,ATTTTTGG,-0.0367
6,ACTAGTGC,0.0333
7,CACACCCA,0.0643
8,ACACTAAC,0.097
9,GTACTAAA,0.102
10,CCTCCTAC,0.0023
11,CCGACGTA,0.0868
12,GTCTCCAA,0.0716
13,CAACGGAG,-0.0789
14,CTTACAGC,0.00061
15,CCACTCAG,-0.178
16,CACCCGGA,0.0216
17,CCCCGGAC,-0.127
18,GGAGGGAC,-0.221
19,CAGGACTG,-0.303
20,CTTACTAC,0.0987
21,ATCGCCCC,-0.184
22,ATATGACC,-0.0291
23,CTTCATGA,-0.061
24,CTCTGTAC,0.0774
25,ATCAGAAT,-0.0439

row,Sequence,PBM E-score
1,CTACGTTC,0.0468
2,ACGCACCC,0.0344
3,AGCAATCA,-0.148
4,AGCCCGCC,-0.2
5,GAACGCTC,-0.164
6,GAAATACC,-0.0531
7,GAAGCCCC,-0.193
8,ATAGGAAT,-0.00642
9,CAGCGAGC,0.0674
10,AGGAGAGG,-0.307
11,AGGCAGGG,0.0595
12,CAGCATGG,0.0764
13,CATACCGC,-0.109
14,CCTTTAGC,0.0736
15,CTGCACGA,0.05
16,AAACGTTT,-0.0348
17,ACCGATCC,-0.281
18,AGCTCGTG,-0.111
19,GCCTCCAC,-0.0632
20,GACACAAC,0.178
21,CCACGGTA,-0.191
22,ACGCGCTG,0.184
23,AATGGGGA,-0.0448
24,GTCACCAA,0.00069
25,TGGGGGAA,-0.39

row,Sequence,PBM E-score
1,CGAGCCTA,0.206
2,AAGAGTTA,-0.0104
3,AATGGGCG,-0.103
4,AAACAGTA,0.0841
5,GCATATGA,-0.0183
6,ACGTGCTG,0.161
7,AAGCGCGC,0.025
8,GAAACCAA,0.0919
9,CGATACGC,-0.053
10,CCTCGATC,-0.274
11,TCCTAGAA,-0.00122
12,ATAGGGCC,-0.191
13,TCCGGGCA,-0.127
14,CCGAGTTC,0.0417
15,ACCCGTCC,-0.19
16,GAGGAGAC,-0.302
17,CTGTGCCC,0.314
18,AGTGTTCA,-0.133
19,ACATTGGG,-0.0882
20,ATCAGTGG,-0.18
21,GTGGGATA,-0.0921
22,CTAACGCC,-0.0647
23,ACCAGGCA,0.446
24,ATTCTACA,0.295
25,AAATTGGG,-0.0123

row,Sequence,PBM E-score
1,AGAGGGCC,-0.371
2,TACTTAGA,-0.0164
3,AGCCTGTC,0.0838
4,CAAAATGC,0.0533
5,AGTGCACA,-0.0321
6,AATATGGC,-0.0164
7,CCATGAGA,0.0336
8,GCTATGTA,0.341
9,AGGGTTAT,0.121
10,TAACCTGA,0.0658
11,AGCATCTG,0.013
12,ATGTTTTA,0.362
13,AGAGAGCC,-0.151
14,CCTTACAG,0.139
15,CCGCAGTC,-0.0333
16,AGCTCTCC,-0.0638
17,CTTTTATA,0.113
18,TACAACCA,0.238
19,ACGAATCC,0.114
20,GTTGCGGA,-0.0682
21,CAGTAACA,0.102
22,CCAAGCCC,-0.0266
23,TTGATCAA,-0.0736
24,ACGGACGA,0.00159
25,ATCTGTTA,0.127

row,Sequence,PBM E-score
1,CGATCCCA,-0.356
2,AAGAAACT,-0.0283
3,AGGGGGCA,-0.276
4,CCCCCTGA,-0.182
5,ACGAGCAA,-0.11
6,CCTTATCC,-0.171
7,AACATAAT,0.249
8,ATTATGGC,0.0412
9,CAAAATGA,0.0345
10,GTGGTATA,0.019
11,ACACCACG,-0.00017
12,CAATGAAC,-0.032
13,ACCATGAG,-0.189
14,CTATCGTA,0.136
15,CAATTTTC,-0.068
16,AGATCCTC,-0.299
17,TGAATAAA,0.234
18,GACAGTAA,-0.0736
19,ATGAAGGG,-0.0601
20,CGTTGGGA,-0.263
21,ATCGTTTA,0.125
22,AGCTGGAG,-0.107
